Data taken from a collection of fitness landscapes (doi:10.1016/j.celrep.2020.107928).
Whole data set: some 81,000 sequences, median “one-hybrid fitness for binding NBS DNA” near -0.1, cut for the highest 2% near 0.36. The list shows a part of the results.

B1: Caulobacter ParB omega fusion; a variant is named by its letters at X, in order, B8GW30 (parent)
chain: MESVVVGEPGMSEGRRGLGRGLSALLGEVDAAPAQAPGEQLGGSREAPIEILQRNPDQPRRTFREEDLEDLSNSIREKGVLQPILVRPSPDTAGEYQIVAGERAWRAAQRAGLKTVPIMVRELDDLAVLEIGIIENVQRADLNVLEEALSYKVLMEKFERTQENIAQTIGKSXSHVANXMRLLXLPDEVQSYLVSGELTAXHARAIAAAADPVALAKQIIEGGLSVRETEALARKAPNLSAGKSKGGRPPRVKDTDTQALESDLSSVLGLDVSIDHRGSTGTLTITYATLEQLDDLCNRLTRGI

Variants of: B1
Test: one-hybrid fitness for binding NBS DNA (the Noc-binding site; scaled: cognate 1, non-cognate 0); higher = stronger binding
Conditions: with NBS DNA site
Method in brief: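 Fitness here means the log change in variant-to-wild-type read ratio between plasmids sequenced before and after selection. That scale was set so cognate equals 1 and non-cognate equals 0. The selection was a bacterial one-hybrid screen of Caulobacter ParB libraries, four specificity codons randomised, in E. coli USO carrying a HIS3 reporter with the site 19 bp from the promoter, grown 48 hours at 37°C on M9-minus-histidine with 0.1 mM IPTG and 5 mM 3-AT.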

Variant	one-hybrid fitness for binding NBS DNA
YHSC	≤ 0.2
NHPE	≤ 0.2
MTCD	≤ 0.2
LARW	≤ 0.2
RHMA	≤ 0.2
EENK	≤ 0.2
DFTT	≤ 0.2
EQNW	≤ 0.2
AMIG	≤ 0.2
AEKC	≤ 0.2
KYYC	≤ 0.2
SRAY	≤ 0.2
SQPS	≤ 0.2
QGIG	≤ 0.2
QWSC	≤ 0.2
TVAD	≤ 0.2
LMSG	≤ 0.2
PPSH	≤ 0.2
RDNM	≤ 0.2
NNEA	≤ 0.2
YAPT	≤ 0.2
GDAS	≤ 0.2
DLTP	≤ 0.2
TPVK	≤ 0.2
SHSI	≤ 0.2

Variant	one-hybrid fitness for binding NBS DNA
YDAI	≤ 0.2
DSWG	≤ 0.2
QDPT	≤ 0.2
VLYV	≤ 0.2
NVRF	≤ 0.2
NGPA	≤ 0.2
AGVC	≤ 0.2
SKWH	≤ 0.2
HNSK	≤ 0.2
SLSE	≤ 0.2
DHGR	≤ 0.2
AHPE	≤ 0.2
TPQS	≤ 0.2
NTKH	≤ 0.2
MWYR	≤ 0.2
VMPG	≤ 0.2
LLDT	≤ 0.2
YQCV	≤ 0.2
VLFM	≤ 0.2
QYPE	≤ 0.2
GGAS	≤ 0.2
CCTY	≤ 0.2
TRHT	0.364
WYQS	≤ 0.2
SVKL	≤ 0.2

Variant	one-hybrid fitness for binding NBS DNA
QCNT	0.569
WAKG	≤ 0.2
LCSA	≤ 0.2
RAKR	0.668
QICV	≤ 0.2
ARID	≤ 0.2
YHKS	≤ 0.2
GMDG	≤ 0.2
PDSE	≤ 0.2
TSQD	≤ 0.2
HGLS	≤ 0.2
QVTC	≤ 0.2
TTTN	≤ 0.2
LEEC	≤ 0.2
AAVD	≤ 0.2
QTNY	0.431
MYLM	≤ 0.2
LKEV	≤ 0.2
AWRT	≤ 0.2
WQFG	≤ 0.2
EKTT	≤ 0.2
AITE	≤ 0.2
IQCS	≤ 0.2
ANSH	≤ 0.2
RYHS	0.441

Variant	one-hybrid fitness for binding NBS DNA
MLYS	≤ 0.2
CISL	≤ 0.2
TYVC	≤ 0.2
TKKQ	≤ 0.2
GASR	≤ 0.2
PNPC	≤ 0.2
TFQK	≤ 0.2
HIEK	≤ 0.2
YLCY	≤ 0.2
ERRV	≤ 0.2
PAKC	≤ 0.2
STPT	≤ 0.2
LKQP	≤ 0.2
YCIW	≤ 0.2
CEQS	≤ 0.2
RKHQ	≤ 0.2
LLAN	≤ 0.2
SIYF	≤ 0.2
QRWT	0.707
DSYD	≤ 0.2
QPQT	≤ 0.2
AQHL	≤ 0.2
ECTS	≤ 0.2
KNRV	≤ 0.2
MLNE	≤ 0.2

Variant	one-hybrid fitness for binding NBS DNA
HYTD	≤ 0.2
RYYQ	≤ 0.2
SMAI	≤ 0.2
VSYC	≤ 0.2
ITYG	≤ 0.2
PMSM	≤ 0.2
RSQW	≤ 0.2
ELDL	≤ 0.2
CTGH	≤ 0.2
RVMI	≤ 0.2
LGYN	≤ 0.2
LQIN	≤ 0.2
DEWS	≤ 0.2
SEPA	≤ 0.2
IEYR	≤ 0.2
RKAD	≤ 0.2
CRKT	0.365
ISNG	≤ 0.2
QHMT	0.328
IINW	≤ 0.2
VYRP	≤ 0.2
TNMC	≤ 0.2
YPAA	≤ 0.2
QYCT	0.419
HGER	≤ 0.2

Variant	one-hybrid fitness for binding NBS DNA
YLEG	≤ 0.2
ALPM	≤ 0.2
NEAP	≤ 0.2
QGYV	≤ 0.2
LMWL	≤ 0.2
HSLD	≤ 0.2
CNYR	≤ 0.2
WRVS	≤ 0.2
GTGR	≤ 0.2
SLNS	≤ 0.2
AAHH	≤ 0.2
TLFA	≤ 0.2
RHCW	≤ 0.2
ERNM	≤ 0.2
PSRG	≤ 0.2
KAVK	≤ 0.2
NVDR	≤ 0.2
VFTR	≤ 0.2
FGNT	≤ 0.2
VVSC	≤ 0.2
NHFT	≤ 0.2
RAPK	≤ 0.2
VWTS	≤ 0.2
AQAL	≤ 0.2
WRDF	≤ 0.2

Variant	one-hybrid fitness for binding NBS DNA
SSEE	≤ 0.2
WIKS	≤ 0.2
QRCL	0.251
MLQF	≤ 0.2
QGCR	≤ 0.2
RQCG	≤ 0.2
KRSQ	≤ 0.2
ALDM	≤ 0.2
STWC	≤ 0.2
ALGA	≤ 0.2
STRQ	≤ 0.2
AIVS	≤ 0.2
DASW	≤ 0.2
RSIS	0.203
NHGR	≤ 0.2
SETF	≤ 0.2
TMAC	≤ 0.2
PVVW	≤ 0.2
GLVC	≤ 0.2
SYKL	≤ 0.2
NPTM	≤ 0.2
IHTM	≤ 0.2
CEWG	≤ 0.2
ISAL	≤ 0.2
MNSY	≤ 0.2

Variant	one-hybrid fitness for binding NBS DNA
AGKS	≤ 0.2
MRDL	≤ 0.2
QTMV	≤ 0.2
MTVC	≤ 0.2
SDNT	≤ 0.2
NRAV	≤ 0.2
TCML	≤ 0.2
KTGE	≤ 0.2
WWDC	≤ 0.2
VTFR	≤ 0.2
LFHG	≤ 0.2
WDNT	≤ 0.2
EHST	≤ 0.2
LHKV	≤ 0.2
RYLS	0.272
HSCI	≤ 0.2
VKMN	≤ 0.2
GGKL	≤ 0.2
DDMR	≤ 0.2
YDEG	≤ 0.2
